# Results from PubChem BioAssay AID1458 (National Center for Advancing Translational Sciences (NCATS), 2008).
# Hit rate of the full screen: of about 210,000 compounds, about 5,900 (2.8%) were called active. Inconclusive results, whose numbers are uncertain, are shown with a selection of clear calls. The call rests on the fitted dose curve; in most records, active means well fitted activation curve with a large enough effect; inconclusive means small, poorly fitted or top-dose-only effect; inactive means no such curve, though single readings can be large or run the other way. Potencies beside an inconclusive call are fits to weak or partial responses and may not hold up.
# Assay: qHTS Assay for Enhancers of SMN2 Splice Variant Expression; further: nearly all actives have a fitted effect of over 55% in size; on activity change, positive = activation: % of control where 0% means no effect
# Details: HEK293 SMN2-luciferase splicing reporter, luminescence, 30-36 h; activity change, positive = activation: at 46.1 µM (top of the series)
# Description: NIH Chemical Genomics Center [NCGC] NIH Molecular Libraries Probe Production centers Network [MLPCN] MLPCN Grant: R03 MH084179-01 Assay Submitter (PI): Elliot Androphy NCGC Assay Overview: Spinal muscular atrophy (SMA) is caused by insufficient levels of the survival motor neuron protein SMN. The SMN locus on chromosome 5q13 contains two inverted copies of SMN called SMN1 and SMN2 which are 99% identical at the amino acid level. SMN1 is a fully functional protein and SMN2 skips exon 7 90% of the time. Skipping of exon 7 produces non-functional protein product. 10% of the SMN2 protein includes exon 7 and is fully functional. In the SMA disease state, mutations in the SMN1 locus are the cause of the disease state. Because only 10% of SMN2 is of the fully functional form, it is not sufficient to overcome the deficiency produced by the loss of the SMN1 product. A therapy that either increase the amount of SMN2 product made or to increase the inclusion of exon 7 has been proposed for the treatment of SMA. We have designed an assay to identify small molecules that can increase the amount of functional SMN2 product by appending a luciferase reporter gene after the native SMN2 gene, such that inclusion of exon 7 in the expressed product places the luciferase sequence in frame, thus generating functional luciferase enzyme.
# NCGC Assay Protocol Summary: This screen utilizes a luciferase reporter gene assay, combining the promoter and splicing based cassettes in tandem with the major portion of the native SMN2 cDNA, and then transfected into HEK293 cells. Compounds that increase luciferase signal presumably enhance expression of the functional SMN2 splice variant. Passaging media contained DMEM w/ glutamax (+phenol red) 10% FCS, 1x pen/strep, 200 ug/ml hygro, 1x sodium pyruvate. Assay media contained DMEM w/ glutamax (-phenol red) 10% FCS, 1x pen strep, 1x pyruvate Sequence, Parameter, Value, Description (1) Cells, […], 2000 cells/well, 1536 TC treated White solid bottom plate (2) Time, 10-12 hours, 37C 5% CO2 (3) Compound, 23 nl, MLSMR Library (4) Control Compound, 23 nL, Sodium butyrate st 4.5mM (final) conc (5) Time, 30-36 hours, 37C 5% CO2 (6) Reagent, 3 ul, One Glo (TM) from Promega (7) Time, 5-15 minutes, Room temp (8) Detector, Viewlux: luminescent read, 60 second integration, high speed 2x binning Keywords: Spinal muscular atrophy, SMA, SMN2, high throughput screening, MLSMR, MLPCN, NIH Roadmap, qHTS and NCGC
# Potency means the concentration at half of the fitted maximal effect; tags describe the fitted curve by direction and shape.
Structure (SMILES),"activity change, positive = activation",Potency
O=C(Nc1ccn(Cc2ccc(F)cc2)n1)c1ccncc1,inactive: -62.6%,–
Cc1cccc(C(C)C)c1NC(=O)C1CCCN1S(=O)(=O)c1cccc2nsnc12 (configuration not stated),inactive: -32.3%,–
CCn1c(COc2cccc3ccccc23)nnc1SCC(=O)OC1CCCCC1,–,"inconclusive: 0.0045 µM [activator, full curve, poor fit]"
CCOc1ccc(C(C)(C)C)cc1S(=O)(=O)N1CCOCC1,–,"inconclusive: 11.2 µM [activator, partial curve, poor fit]"
CC(=NCCc1ccccc1)C1=C(O)COC1=O,–,"inconclusive: 25.1 µM [activator, partial curve, poor fit]"
COc1ccc(C(=O)Nc2cccc(C(=O)N3CCN(C)CC3)c2)cc1,–,"inconclusive: 35.5 µM [activator, partial curve, poor fit]"
CN1CCN(S(=O)(=O)c2ccc(-c3ccccc3)cc2)CC1,–,"inconclusive: 17.8 µM [activator, partial curve, poor fit]"
CCn1cc(/C=C/C(=O)Nc2ccc(C)cc2Br)cn1,–,"inconclusive: 3.55 µM [activator, single point]"
O=C(Nc1ccccc1F)c1ccc2c(Cl)c3c(nc2c1)CCC3,–,"inconclusive: 3.55 µM [activator, partial curve]"
O=C1CCCC2=C1C(c1ccccc1)C1C(=O)c3ccccc3C1=N2 (configuration not stated),–,"inconclusive: 1.26 µM [activator, full curve, poor fit]"
O=C(CSc1nc2ccc(Cl)cc2[nH]1)c1ccc2c(c1)OCO2,–,"inconclusive: 15.8 µM [activator, partial curve, poor fit]"
CCN(CCCNC(=O)c1nn(-c2ccc(OC)cc2)c(=O)c2c1c1ccccc1n2C)c1ccccc1,inactive: 2.93%,–
c1ccc(COc2ccc(OCCCNC3CCCC3)cc2)cc1,–,"inconclusive: 8.91 µM [activator, partial curve]"
CCOC(=O)C(=CNc1cc(C)nn1-c1ccc(C)cc1)C(=O)OCC,–,"inconclusive: 3.16 µM [activator, full curve, poor fit]"
COc1ccccc1S(=O)(=O)Cc1ccc(C(=O)NCc2ccc(Cl)cc2)o1,inactive: -25.8%,–
COc1ccc(C)cc1NS(=O)(=O)c1cn(C)nc1C,–,"inconclusive: 0.282 µM [activator, partial curve, poor fit]"
Nc1ccc(O)c2c(=O)cc(-c3ccccc3Cl)oc12,–,active: 11.2 µM
O=C(CCSc1ccc(Cl)cc1)NC1CCCCC1,inactive: 0.627%,–
Cc1nc2cc(NC(=O)NCc3ccccc3)ccc2o1,inactive: 9.65%,–
N#Cc1c(Cl)nsc1NC(=O)c1ccccc1,inactive: -41.9%,–
Cc1nn(CCc2n[nH]c(=S)n2C2CCCCC2)c(C)c1Br,–,"inconclusive: 0.316 µM [activator, partial curve, poor fit]"
O=C(Nc1ccc2snnc2c1)N1CCSCC1,inactive: 22.3%,–
Oc1ccc(-c2csc(NCc3ccco3)n2)cc1,inactive: 25.4%,–
COc1ncc2nc(-c3cc(F)cc(F)c3)c(=O)n(C[C@H]3CCCO3)c2n1,inactive: 7.87%,–

Structure (SMILES),"activity change, positive = activation",Potency
CCSC1=C(C#N)C(=O)n2c1cc1c2CCCC1,–,"inconclusive: 3.98 µM [activator, full curve, poor fit]"
O=C(CSc1nnc2ccccn12)Nc1nsc(-c2ccccc2)n1,inactive: 10.6%,–
Cc1ccc(F)c(NC(=O)/C(C#N)=C(\O)c2ccc(C(C)(C)C)cc2)c1,–,"inconclusive: 7.94 µM [activator, partial curve]"
Cc1c(Cl)cnc(NC(=O)CSc2nnc3ccccn23)c1Cl,–,"inconclusive: 20 µM [activator, partial curve, poor fit]"
Cc1nn(CC(=O)c2ccccc2Cl)c(C)c1[N+](=O)[O-],–,"inconclusive: 20 µM [activator, single point]"
CCc1ccccc1Nc1nc(N)nc(CSc2nnnn2C)n1,inactive: 20.6%,–
COCc1nn2cc(-c3ccc(C)cc3)nc2s1,–,active: 2.51 µM
CC(=O)OC1CC2C(C)(C)C(=O)CC[C@]2(C)C2CC[C@]3(C)C(=CC(=O)OC3c3ccoc3)[C@]12C (some centres not stated),–,"inconclusive: 12.6 µM [activator, single point]"
O=C(OCc1nnc(-c2ccccc2)o1)c1cc(S(=O)(=O)N2CCOCC2)c(Cl)cc1Cl,–,"inconclusive: 14.1 µM [activator, partial curve]"
O=C(NCCc1ccccc1)c1cnc2n(c1=O)CCS2,–,"inconclusive: 14.1 µM [activator, partial curve]"
NC(=O)c1cc([N+](=O)[O-])ccc1N1CCCCC1,–,"inconclusive: 3.98 µM [activator, single point]"
O=C(Nc1cccnc1)c1ccc2nc(-c3ccccc3)c(-c3ccccc3)nc2c1,inactive: -24.5%,–
NC(=O)C1(N2CCCCC2)CCN(CC(=O)Nc2ccccc2-c2ccccc2)CC1,–,"inconclusive: 11.2 µM [activator, partial curve, poor fit]"
COc1ccccc1N1CCN(C(=O)c2cn(CC(C)C)c(=O)c3c2c2ccccc2n3C)CC1,–,"inconclusive: 28.2 µM [activator, single point]"
O=C(CNC(=O)c1ccccc1Cl)Nc1ccc(F)cc1,–,"inconclusive: 35.5 µM [activator, single point]"
CCOc1ccc(NC2=NCCC(=O)N2Cc2cccs2)cc1,–,"inconclusive: 0.708 µM [activator, full curve, poor fit]"
COc1ccc2ccccc2c1/C=N/NC(=O)c1sc(N)c(C#N)c1C,–,"inconclusive: 0.0282 µM [activator, single point]"
O=C(c1ccccc1)c1ccc2n1CC[C@H]2C(=O)O,inactive: 21.4% [at 20.6 µM],–
COc1ccc(NC(=O)c2cccc(-n3c(C)ccc3C)c2)c(OC)c1,–,"inconclusive: 28.2 µM [activator, single point]"
Cc1ccc(NC(=O)NCCCN2CCCC2=O)cc1,inactive: 12.4%,–
O=C(/C=C\c1ccccc1)Nc1nccs1,–,active: 3.98 µM
COc1ccc2c(c1)OC(O)(C(F)F)CC2=O (configuration not stated),–,"inconclusive: 3.55 µM [activator, full curve]"
Cc1ccc(/C=C2\SC(=S)N(C3CCS(=O)(=O)C3)C2=O)o1 (configuration not stated),inactive: 2.26%,–
